Results reported in ChEMBL document CHEMBL1156829.
In all, about 5,400 compounds were measured (“IFI”: median about 2, highest 2% from about 22 on). Some of the results follow.

Test: NOVARTIS: Inhibition Frequency Index (IFI) - the number of HTS assays where a compound showed > 50% inhibition/induction, expressed as a percentage of the number of assays in which the compound was tested.
Format: functional

Compound	IFI
CCCCn1c(=N)n(CC(O)c2ccc(Cl)c(Cl)c2)c2ccccc21 (configuration not stated)	7.69%
CCN1CCCC1CNc1[nH]cnc2c3cc(F)ccc3nc1-2 (configuration not stated)	2.44%
CC(Oc1ccc(Cl)cc1Cl)c1nc(-c2ccc(NC(=O)c3ccco3)cc2)no1 (configuration not stated)	3.64%
CCN(CC)CCN1C(=O)c2ccccc2NC1c1ccc(C)cc1 (configuration not stated)	6.98%
COc1ccc(C2CC(=O)C3=C(C2)NC(C)=C(C(=O)OC2CCCC2)C3c2ccc(Cl)cc2Cl)cc1 (configuration not stated)	5.88%
CC(C)(C)c1ccc(O)c(CNC2CCCCC2)c1	0%
COc1ccc(S(=O)(=O)N=C2C=C(Nc3ccccc3OC)C(=O)c3ccccc32)cc1	23.1%
Cc1ccc(C(C(=O)NCc2ccccc2)N(C(=O)c2snc(C(N)=O)c2N)c2ccccc2)o1 (configuration not stated)	4.67%
CC(C)(C)c1ccc(CNC(=O)C(Cc2ccc(O)cc2)c2ccccc2)cc1 (configuration not stated)	0%
CCOc1ccc(C(=O)C[N+]2=C(CC)c3ccc(C)n3CC2)cc1	0%
CCOc1ccc(CCNC(=O)c2cccs2)cc1OCC	0%
C=CC[n+]1ccc(/C=C/c2ccccc2)c(C)c1	0%
COc1ccc(-n2nc(C(=O)NCC(=O)Nc3nc4ccccc4s3)c3ccccc3c2=O)cc1Cl	4.65%
COc1cc(CNc2ccc3nc(N)nc(N)c3c2)cc(OC)c1OC	0%
CCCCN(CC(=O)N1c2ccccc2-n2cccc2C1c1ccc(OC)cc1)C(=O)Nc1cccc(F)c1 (configuration not stated)	6.73%
CC(C)(C)c1ccc(-c2nc(C34CC5CC(CC(C5)C3)C4)cs2)cc1	1.1%
CCCCNC(=O)C(CC)Sc1nnc(-c2ccc(C)cc2)c(-c2ccc(C)cc2)n1 (configuration not stated)	0%
CCn1ccccc1=Nc1cccc[n+]1CC	7.69%
Cc1cc(C)cc(-n2c(C)cc(/C=C3\SC(=Nc4ccc(Cl)cc4)NC3=O)c2C)c1	4.82%
CC1(c2ccccc2)CC(c2ccccc2)=Nc2nonc2N1 (configuration not stated)	1.22%
CCCCCCC(=O)NC1CCC(Nc2ccnc3cc(Cl)ccc23)CC1 (configuration not stated)	7.14%

Compound	IFI
COCCNC(=O)C(c1ccc(C)cc1)N(Cc1ccccc1)C(=O)CCC(=O)Nc1nccs1 (configuration not stated)	11.3%
CC(C)(C)CC(C)(C)c1ccc(OCC(=O)NN=C2C(=O)Nc3ccccc32)c([N+](=O)[O-])c1	2.19%
COCCOC(=O)C1=C(C)NC2=C(C(=O)CCC2)C1c1ccc(OC)c(OC)c1OC (configuration not stated)	2.9%
CCCCc1ccc(NC(C)=O)cc1	2.13%
O=[N+]([O-])c1cc(NC2OC(CO)C(OC3OC(CO)C(O)C(O)C3O)C(O)C2O)ccc1Cl (configuration not stated)	0%
CCCCN(CC)C(=O)CSc1nc2ccccc2c(=O)n1Cc1ccco1	0%
CC1CC(C)CN(C(=O)c2sc3ccccc3c2Cl)C1 (configuration not stated)	0%
COc1nccnc1NS(=O)(=O)c1ccc(NC(=O)c2cc3ccccc3oc2=O)cc1	1.15%
CCN1c2ccccc2N=C2C=CC(N)=CC21 (configuration not stated)	0%
COc1cc(OC)c(N(C)S(=O)(=O)c2cccc(C(=O)OCC(=O)Nc3ccccc3C(C)=O)c2)cc1Cl	9.68%
CC1(C)Cc2nc3ccccc3c(NCc3ccc(Cl)cc3)c2C(O)C1 (configuration not stated)	0%
COc1cc(OC)c(N(C)C(=O)c2cc3c(s2)-c2ccccc2S(=O)(=O)C3)cc1Cl	2.78%
O=C(Nc1nc(-c2ccccn2)cs1)c1ccc(Oc2ccc(C(=O)Nc3nc(-c4ccccn4)cs3)cc2)cc1	12.6%
O=C(O)c1nsnc1C(O)C(O)C(=O)O (configuration not stated)	0%
CCCCCc1ccc(C(=O)N(CCCC(C)Nc2cc(OC)cc3cccnc23)Cc2ccc(OC)c(OC)c2)cc1 (configuration not stated)	3.7%
COc1ccc(-[n+]2cc(-c3ccc(Cl)cc3)n3c2SCCC3)cc1	1.85%
C=CC1CN2CCC1CC2[C@H](O)c1ccnc2ccc(OC)cc12 (some centres not stated)	2.63%
Oc1nnc(SCc2nc3ccccc3s2)n1Cc1ccco1	4.1%
CC12CN(Cc3ccccc3)CC(C)(CN(Cc3cccc(Br)c3)C1)C2	15.4%
O=C(Nc1ccc2oc(-c3ccccc3F)nc2c1)c1ccc([N+](=O)[O-])o1	14.3%
CCc1ccc(-n2c(C(CC)N(CCC(C)C)C(=O)Nc3ccc(Cl)c(Cl)c3)nc3ccccc3c2=O)cc1 (configuration not stated)	6.67%

Compound	IFI
COc1ccc(CCNC(=O)Cn2c(C)cc3ccccc3c2=O)cc1OC	0%
Nc1ccc(-c2cc(N)n(-c3ccc(Oc4ccccc4)c(S(=O)(=O)O)c3)n2)cc1	1.83%
CCc1ccc(NC(=O)c2sc3nc(N)c(C#N)c(-c4ccc(OC)c(OC)c4)c3c2N)cc1	1.06%
CCN(Cc1ccccc1)c1ncnc2ccc(Br)cc12	1.56%
Cc1cc(N)c2ccccc2[n+]1CCCCCCCCCC[n+]1c(C)cc(N)c2ccccc21	5.79%
CC(C(=O)N1CCN(C(c2ccccc2)c2ccccc2)CC1)N(CCN1CCOCC1)S(=O)(=O)c1ccccn1 (configuration not stated)	0.99%
FC(F)(F)COc1nc(N2CCCCC2)nc(N(c2ccccc2)c2ccccc2)n1	0%
Cc1cccc(OC(C)C(=O)N2CCc3ccccc32)c1 (configuration not stated)	0%
COc1ccc(OC)c(/C=C/C(=O)Nc2ccc3nc(N4CCN(C)CC4)cc(C)c3c2)c1	11.7%
O=[N+]([O-])c1ccc(-c2cn3nc(C(F)(F)F)sc3n2)cc1	2.82%
COc1ccc(Cl)cc1NC(=O)CSC1=C(C#N)C(c2ccccc2)C(C(=O)Nc2ccccc2)=C(C)N1 (configuration not stated)	0%
Cc1cc(C)cc(NC(=S)NNc2ccnc3cc(Cl)ccc23)c1	2.94%
CCC1=NN2C(=N)/C(=C/c3cn(CCOc4cccc(C)c4)c4ccccc34)C(=O)N=C2S1	0%
Cc1ccc(C)c(CN2C(=O)c3ccccc3S(=O)(=O)c3ccc(C(=O)NCCCN4CCCC(C)C4)cc32)c1 (configuration not stated)	0%
Cc1ccc2ccc(C(Nc3ccccn3)c3ccc(Br)cc3)c(O)c2n1 (configuration not stated)	8.33%
Cc1cc(C)c(S(=O)(=O)N(C)CCCNc2ccnc3cc(Cl)ccc23)c(C)c1	4.72%
Cc1ccn2c(NC(C)(C)CC(C)(C)C)c(-c3ccccc3OC(=O)c3ccco3)nc2c1	3.74%
CC(=O)Nc1ccc2c(c1)C(=O)N(C(C(=O)NCC(=O)O)C1CCCCC1)[C@@H](CCC(=O)O)C(=O)N2 (some centres not stated)	1.22%
CC(C)C1N=C2c3ccccc3N=C(SCC(=O)Nc3cc(C(F)(F)F)ccc3Cl)N2C1=O (configuration not stated)	3.53%
COc1ccccc1C(=O)ON=C(N)Cc1cccc2ccccc12	0%
